This note sets out measurements from the supplement of paper PMC10338343.

± gives the standard deviation. In all, about 3,700 sequences were measured (“pre-steady-state target cleavage rate”: median about 0.02, highest 2% from about 0.23 on). The list shows a part of the results, in another mix than the full data.
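Note: 1 nM active piRISC with 0.1 nM target library at 33 °C single turnover.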

This assay deals with MILI (PIWIL2) piRISC loaded with Kctd7 piRNA (26 nt). As to the kind of experiment: pre-steady-state target cleavage rate (min^-1); MIWI and MILI are mouse PIWI proteins and EfPiwi is from a freshwater sponge; tags in brackets are library labels; higher = faster piRNA-guided slicing of the target. The conditions noted are these: guide: Kctd7 piRNA 5'p-UGUUAAUCUCUCAGAGAAGGUGACAG; auxiliary factor: 500 nM mouse GTSF1. The procedure, abridged:
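The pre-steady-state cleavage rate was derived from a burst-and-steady-state fit of Cleave-'n-Seq data. For these assays, 1 nM active affinity-purified piRISC loaded with a single synthetic guide was mixed with […] a transcribed, DNA-blocked target RNA library in HEPES–potassium acetate buffer at 33 °C, with or without 500 nM GTSF1 partner protein, for 0–8 or 0–960 min. Sequencing counts of uncleaved targets were normalised to depth and to weakly complementary targets, and k3 was capped at 0.0001 min^-1 after three trials were pooled.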
Turning to UAGUGUGUCAGCUUCUCUCAGAGAUUAACA, the “pre-steady-state target cleavage rate” value was 0.0558 ± 0.0084.

With UAGUGAGUCACCUUCUCUGAGAGAUUAACCA, the “pre-steady-state target cleavage rate” value stood at 0.219 ± 0.017.

Take UAGUCUCUGACCUUCUCUGAGAGAUUAACA: the “pre-steady-state target cleavage rate” value stood at 0.111 ± 0.0053.

On to UAGUGAGUGACCUACUCUGAGAGAUUAACA, for which the “pre-steady-state target cleavage rate” value was found to be 0.111 ± 0.011.

Regarding UAGUGACAGACCUUCUCUGCGAGAUUAACA, the “pre-steady-state target cleavage rate” value was 0.0565 ± 0.016.

UAGUGUGUCACCUUCUCAGAGAGAUUAUGA: the “pre-steady-state target cleavage rate” value came to 0.0821 ± 0.027.

For the sequence UAGUGUGUCACCUUCUCUGAGACGAUUAACA, the “pre-steady-state target cleavage rate” value was 0.0543 ± 0.011.

Turning to UAGUGACAGACCUUCUCUGAGAGAUUCACA, the “pre-steady-state target cleavage rate” value turned out to be 0.0634 ± 0.023.

For UAGUGACUGACGUUCUCUGAGAGAUUAACA, the “pre-steady-state target cleavage rate” value worked out at 0.127 ± 0.01.

With UAGUGUGUCACCAUCUCUGAGAGAUUAAGA, the “pre-steady-state target cleavage rate” value came out at 0.0441 ± 0.013.

As for UAGUGACUCAGCUUCACUGAGAGAUUAACA, the “pre-steady-state target cleavage rate” value came out at 0.103 ± 0.018.

On to UAGUGACACACCUUCUCUGUGAGAAUAACA, for which the “pre-steady-state target cleavage rate” value was determined as 0.0221 ± 0.0087.

With UAGUCUGUCUCCUUCUCUGAGAGAUUUACA, the “pre-steady-state target cleavage rate” value worked out at 0.101 ± 0.016.

UAGUGAGUCAUCCUUCUCUGAGAGAUUAACA: the “pre-steady-state target cleavage rate” value was 0.0487 ± 0.0084.

Turning to UAGUGUCAGACCUUCUCUGAGAGAUUAAGA, the “pre-steady-state target cleavage rate” value was 0.0369 ± 0.01.

For the sequence UAGUGACACUCCUUCUCUGAGAGAUUAACA, the “pre-steady-state target cleavage rate” value amounted to 0.126 ± 0.0098.

On to UAGUGAGACACGUUCUCUGAGAGAUUAACA, for which the “pre-steady-state target cleavage rate” value turned out to be 0.117 ± 0.0093.

In the case of UAGUCUGUCUCCUUCUCUGAGACAUUAACA, the “pre-steady-state target cleavage rate” value turned out to be 0.0235 ± 0.0056.

As to UAGUGUGUCAGCUUCUCUGACAGAUUAACA, the “pre-steady-state target cleavage rate” value is 0.0353 ± 0.0088.

Take UAGUGACUCACCUUCUCUGACAGAUUAUCA: the “pre-steady-state target cleavage rate” value is 0.018 ± 0.0058.

For UAGUGUGUCACCUUCACUGAGAGAAUAACA, the “pre-steady-state target cleavage rate” value is 0.0146 ± 0.0066.

As to UAGUGUGACACCAUCUCUGAGAGAUUAACA, the “pre-steady-state target cleavage rate” value turned out to be 0.137 ± 0.011.

Regarding UAGUGACAGUGCUUCUCUGAGAGAGUAACA, the “pre-steady-state target cleavage rate” value was determined as 0.00647 ± 0.0028.

Turning to UAGUGUGUCACCUUCUCUGAGAGAUUAAGCA, the “pre-steady-state target cleavage rate” value is 0.148 ± 0.035.

For UAGUCUGUGACCUUCUGUGAGAGAUUAACA, the “pre-steady-state target cleavage rate” value stood at 0.109 ± 0.0078.

As to UAGUGACACACCUUCUCUGAGAGAUAUAACA, the “pre-steady-state target cleavage rate” value worked out at 0.155 ± 0.021.

Regarding UAGUGACACACCUUGUCUGUGAGAUUAACA, the “pre-steady-state target cleavage rate” value is 0.0374 ± 0.0046.

UAGUGAGUCACCUUCUGACAGAGAUUAACA: the “pre-steady-state target cleavage rate” value came to 0.0161 ± 0.0054.

Regarding UAGUGAGUCACCUUUUCUGAGAGAUUAACA, the “pre-steady-state target cleavage rate” value was found to be 0.175 ± 0.015.

Turning to UAGUGACACAGCUUCUCUCAGAGAUUAACA, the “pre-steady-state target cleavage rate” value came to 0.0303 ± 0.0081.

In the case of UAGUGACAGUCGUUCUCUGAGAGAUUUACA, the “pre-steady-state target cleavage rate” value was 0.00947 ± 0.0039.

Take UAGUGACAGUGGAAGUCUGAGACAUUAUCA: the “pre-steady-state target cleavage rate” value is less than 0.0001.

As for UAGUGACACACCUUCUCUGAGAUGAUUAACA, the “pre-steady-state target cleavage rate” value was 0.092 ± 0.0095.

As for UAGUGAGUCAGGUUCUCUGAGAGAUUAUGA, the “pre-steady-state target cleavage rate” value amounted to 0.00754 ± 0.0035.

On to UAGUGUGUCAGCUUCUCUGAGACAUUAACA, for which the “pre-steady-state target cleavage rate” value amounted to 0.0192 ± 0.0061.

On to UAGUCUGGUCACCUUCUCUGAGAGAUUAACA, for which the “pre-steady-state target cleavage rate” value came out at 0.233 ± 0.015.

On to UAGUCUGUGUCCUUCUCUGAGAGAUUAACA, for which the “pre-steady-state target cleavage rate” value was 0.114 ± 0.0092.

With UAGUGUGUUCACCUUCUCUGAGAGAUUAACA, the “pre-steady-state target cleavage rate” value is 0.176 ± 0.013.

Consider UAGUGUGUCACCUACUCUGAGAGAAUAACA, for which the “pre-steady-state target cleavage rate” value is 0.0702 ± 0.017.

Consider UAGUGUCUCACCUUCUGUGAGAGAUUAACA, for which the “pre-steady-state target cleavage rate” value came to 0.0781 ± 0.011.

With UAGUGACAGUCCUUCUCAGAGAGUUUAACA, the “pre-steady-state target cleavage rate” value worked out at 0.00548 ± 0.0033.

Regarding UAGUGUGUCUCCUUCUCUGAGAGAUUAACA, the “pre-steady-state target cleavage rate” value turned out to be 0.16 ± 0.023.

Take UAGUGAGUCUCCAUCUCUGAGAGAUUAACA: the “pre-steady-state target cleavage rate” value came to 0.086 ± 0.013.

In the case of UAGUCUGUCACCUUCUCUGAGAGUUUAUCA, the “pre-steady-state target cleavage rate” value came to 0.149 ± 0.046.

With UAGUCGUGUCACCUUCUCUGAGAGAUUAACA, the “pre-steady-state target cleavage rate” value was 0.199 ± 0.01.

Regarding UAGUCUGUCACCUUCUCUGAGAGAGUAACA, the “pre-steady-state target cleavage rate” value amounted to 0.245 ± 0.033.

Consider UAGUGACAGACCUUGUCUGAGACAUUAACA, for which the “pre-steady-state target cleavage rate” value amounted to 0.0532 ± 0.015.

For UAGUGUGACACCUUCUCUCAGAGAUUAACA, the “pre-steady-state target cleavage rate” value amounted to 0.0451 ± 0.011.

Turning to UAGUGACUCACCUUUUCUGAGAGAUUAACA, the “pre-steady-state target cleavage rate” value is 0.179 ± 0.013.

Consider UAGUGAGUCACCUUCUCUGUGAGAUUUACA, for which the “pre-steady-state target cleavage rate” value was 0.0421 ± 0.0095.

Take UAGUGAGAGACCUUCUCUGAGAGAUUAAGA: the “pre-steady-state target cleavage rate” value was determined as 0.0627 ± 0.022.

As to UAGUGACAGUGGUUCUCUGAGAGAUUGAACA, the “pre-steady-state target cleavage rate” value was less than 0.0001.

On to UAGUGAGUCACCUUCAGUGAGAGAUUAAGA, for which the “pre-steady-state target cleavage rate” value is 0.0199 ± 0.0069.

For the sequence UAGUGACUCACCUUGUCUGAGACAUUAACA, the “pre-steady-state target cleavage rate” value worked out at 0.0647 ± 0.011.

Turning to UAGUGACACUCCUUCUCUGAGAGAAUAACA, the “pre-steady-state target cleavage rate” value was 0.0169 ± 0.0062.

For UAGUGACAGUGCUUCUCUGAGAUAUUAACA, the “pre-steady-state target cleavage rate” value amounted to 0.00529 ± 0.0022.

UAGUGACAGACCUUCUCAGAGAGAUAAACA: the “pre-steady-state target cleavage rate” value amounted to 0.0127 ± 0.0055.

Turning to UAGUGACAGUGCUAUCUCUGAGAGAUUAACA, the “pre-steady-state target cleavage rate” value is 0.0173 ± 0.004.

For the sequence UAGUGACUCACCUUCUGUGAGAGAUUAAGA, the “pre-steady-state target cleavage rate” value was determined as 0.0167 ± 0.0069.

As for UAGUCUGUCACAUUCUCUGAGAGAUUAACA, the “pre-steady-state target cleavage rate” value was 0.153 ± 0.012.

For UAGUGUGUCAGCUUCUCUGAGAGUUUAACA, the “pre-steady-state target cleavage rate” value is 0.161 ± 0.036.

As for UAGUGAGGCACCUUCUCUGAGAGAUUAACA, the “pre-steady-state target cleavage rate” value is 0.205 ± 0.042.

For UAGUGAGACACCUUCACUGAGAGAUUAACA, the “pre-steady-state target cleavage rate” value is 0.113 ± 0.0086.

Turning to UAGUGACUCACCUUCUCAGUGAGAUUAACA, the “pre-steady-state target cleavage rate” value turned out to be 0.0126 ± 0.0033.

As for UAGUGACUCACCCUUCUCUGAGAGAUUAACA, the “pre-steady-state target cleavage rate” value turned out to be 0.062 ± 0.011.

As to UAGUGACAGUCCUUCUCUGAGAGAUGAACA, the “pre-steady-state target cleavage rate” value worked out at 0.00504 ± 0.0029.

As for UAGUGACUCACCUUCUCUGAGAGAUUAGACA, the “pre-steady-state target cleavage rate” value turned out to be 0.129 ± 0.046.

For the sequence UAGUGACAGAGCAUCUCUGAGAGAUUAACA, the “pre-steady-state target cleavage rate” value came to 0.0069 ± 0.0024.

For the sequence UAGUGACACACCUUGUCUGACAGAUUAACA, the “pre-steady-state target cleavage rate” value came to 0.115 ± 0.031.

For “UAGUGUGUCACCUUCUCUGAGAGAUUAACA [g2:g25:cont:t1A]”, the “pre-steady-state target cleavage rate” value was 0.216 ± 0.015.

For the sequence UAGUGACUCACCUUUCUGAGAGAUUAACA, the “pre-steady-state target cleavage rate” value is 0.0361 ± 0.013.

Take UAGUGACAGUCGUUGUCUGAGAGAUUAACA: the “pre-steady-state target cleavage rate” value came to 0.0115 ± 0.0021.
